Laboratory results reported in publication PMC10726135.
The list shows a part of the results. At the low end of the ranking the order means little. The protein was read in a cell extract, so binding may be indirect.

The sequences below were run against T1, HNF4alpha8 (COS-7 nuclear extract) (UniProt P41235-5) (assay: protein-binding microarray). Details: COS-7 nuclear extract on double-stranded Agilent 4x180k PBM; binding buffer, salt, pH and temperature not given; high values mean tight binding; double strand, one strand shown; sequences stand for … in …GCCTAGGGAGATTAGAGTATCGGTCGA.
T1 sequence: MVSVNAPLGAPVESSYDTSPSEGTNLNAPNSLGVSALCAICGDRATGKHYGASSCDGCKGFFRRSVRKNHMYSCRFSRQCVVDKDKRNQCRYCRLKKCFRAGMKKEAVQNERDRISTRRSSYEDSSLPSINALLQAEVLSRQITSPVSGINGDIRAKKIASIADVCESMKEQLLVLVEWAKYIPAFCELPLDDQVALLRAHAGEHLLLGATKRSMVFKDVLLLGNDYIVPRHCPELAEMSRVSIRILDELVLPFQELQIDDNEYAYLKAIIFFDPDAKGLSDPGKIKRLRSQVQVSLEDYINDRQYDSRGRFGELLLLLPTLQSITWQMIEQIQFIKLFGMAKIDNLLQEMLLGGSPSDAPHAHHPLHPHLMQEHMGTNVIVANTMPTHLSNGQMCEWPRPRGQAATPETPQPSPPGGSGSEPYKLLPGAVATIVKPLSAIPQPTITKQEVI

| Sequence | binding signal (log2 normalized intensity) |
| --- | --- |
| CGCTCCGCGAGGTGAGCCATTGGCTGGGGT | 0.233 |
| TATAGTGCTCCCTCCTGTGGTAATAAGTTG | 1.43 |
| ATAGACATGACTTACTTGGCATCATCAAAC | -0.766 |
| AGCTAATCTGACCAAGTGAACTGTGACCTG | 5.12 |
| ATTGGCAGGCATTCCACACTGCAGGCTCTG | -1.29 |
| GGCATTGGAGATATGATAGCTGACAAGCAA | -1.37 |
| AAAATTCCCCAGGAGGAGATAAGATCAGTA | -0.434 |
| GGATCAGAGACACGATGTTCTTGCCAAGTC | -0.451 |
| ATCTTACAGGCTTATACGTGGAAGAAACTC | 0.569 |
| CCCTCCCTCTTCCCTCATATAATTTACATA | 1.83 |
| GAAAGTAAGTGCACAGCCAGAACTGAGCCC | -1.28 |
| CATCAAATCCTCGGAAGACGCACCTCTGCA | -1.35 |
| TTCTTGGGCAAGAAAGGGGTCAGCAAAAAT | 1.8 |
| GTCAGCCCTGCCATCTTGTGGCCATGCTTA | -1.18 |
| AGAAGTGAAAAGTCGTTTTCAGTGTTTCTT | 0.838 |
| GACAAATCTGTGTTGGAGTTCTAAGAGCCT | -1.16 |
| TCTTTGCACTTGATGTTCCCCCTCCCTGGA | 4.84 |
| ACTTTGGTCTTATTACTAAGTGAGAAAAGA | 0.36 |
| CCCCTCCCTCCGCAACCTTTACTCCTTGTG | 4.08 |
| AATGGCTCCACCAGTCAGTCAGTGAGACGT | -1.31 |
| CCTTTTTGGAATGTGTTTGCATGACTCATA | 1.5 |
| ATGAAGTCAAACAAAAGAAAATGTGCCCTT | 2.86 |
| TGTACCCAGCACTGTCAGCAGGGGGATCCA | -1.32 |
| AGTTTGCCACGGTCAGCAATGTGGACTTTG | 6.83 |
| ATCACACAGACAGACATTCAGAAACTGTCA | -1.38 |

| Sequence | binding signal (log2 normalized intensity) |
| --- | --- |
| ACGCACAGAGGCCCCTGATGTGATGTAATC | 0.194 |
| CTTATTTGCATGAAGCACAAAGGTTACTTG | 3.59 |
| CTGTACACTTACAAGTGTACAAAGGTCACT | 8.53 |
| AACTTTATCAAGACTGCAGCCAGGGGCGTA | -1.34 |
| AAGCATAACTGTATAACCTGGAACTGAAAG | -1.11 |
| CGCGCAGCCAATAGGCGAGGACGCAGTCCC | -1.31 |
| AAGGTGTATGTGGACTTTCAACTGCAGGGG | 4.4 |
| ACTTAGAATTTCATTTTGCTCTTTGTTCAG | 3.43 |
| TTCCGGATAGCCAAATAGCCTGGTCACTCA | -1.36 |
| CTGATGCCCTTTGGATTTAGGCAGTTTTTG | 2.92 |
| AAATATTTGGTGAATAAACAAATAATGGCT | -1.33 |
| ACCCGGCAGGCGGGAAAGAAGGCTGGTTTA | -1.3 |
| CCTCCATTTCACAAATGAGGGGACAAAGTT | 1.42 |
| TGGAATTTGCAAGTGGAGATTTCAGCCGCT | -1.42 |
| AGGCCCTCGGCATCATGCCCTTTGGCCCCC | 7.71 |
| CCTGCAGGTGAAACTCCAGGCTCCAAGGGT | -1.34 |
| TGTTTCAGAGTAGCCTATCAGAAGAATCTG | -1.3 |
| CAAACAAAAGGGACAAAGGTGAGTGCAACC | 2.01 |
| ACCTGCTTGTTTTCCCAACAGGTGTTAAAA | 0.171 |
| GATTACCTAAACAGCAACTGTAGTGCATAG | -1.23 |
| TCACTGGTGATGTGAACCTCGATCCCTGGC | 3.71 |
| CATCTGTCATTCCCTCACTCTAGAACCTTC | 0.388 |
| ATGCATGTCCCTCCTCAACCTCTCCAATGC | 1.1 |
| CTGTGAAGACTGCAGCAAAGTCCTCCAACT | -1.35 |
| CTCCTGCTATCAGTACTGAAACATGCCTAT | 0.0532 |

| Sequence | binding signal (log2 normalized intensity) |
| --- | --- |
| ACAAAATTAAGTGATTTGCCCAATATAATA | -1.27 |
| CCCTCTCCCCACCATTAACCCTACAGTCCT | 3.24 |
| TCTCAGGTTGTGTTTGCAGTGAGTAACCTT | 2.32 |
| ATCAGCATGGCTGCAGAGAACAGCAGCTAT | -1.09 |
| TAATTGCTTGTTGGTTCAAGAGAAATGTTA | 1.58 |
| TGGAATAGATCAGCTTTCAACACTCTGGAT | -1.3 |
| ATCCTAGTCTTTGCCCCACTGCAAGTTGAC | 2.63 |
| AAGGCAAACACTCAAGGTCCAAACAGGGTA | 0.664 |
| GACAGCTGGGCCCTGCCTGACCTGCCCTTT | 5.01 |
| AGCCTCACTTGCTGATAAGGCAGACCAGGG | -1.3 |
| CCAAATCTAGCATCAGTGAGTCAAGAGATA | -1.2 |
| TCAAGATTTTACCTACTTCCTTTATTCACT | -1.3 |
| TATTAGGCATTTCATTTGCCCAGCTGTTCC | 0.945 |
| TGGCCACTCCCTGATAGAGAACAAGGTTCC | -1.17 |
| ACAGATAGCATAATCAAAGAGAAAAACATT | -1.38 |
| TTTTGCAACATGAGGAGCCAAGTTTTGCAA | -1.38 |
| CGAGCGCTGCTTCTCGTCCCCGCCCGAGCC | 3.3 |
| TCCCAATCTCTGTGGGAGGGAAGGAGCCTA | -1.3 |
| ACCCAGGTGTGTTGCAACTTTGACTATAGC | 0.342 |
| GGGCTTCAGGGTAAATCCCGTCCCTGCCAA | 0.541 |
| CCACAGATGATCAAAGGTCAGTCTTAGGAC | 5.58 |
| CCGCGGCGGGCCCTCGACCTTTGCCCTCCA | 9.76 |
| ACGCCAGCAGCAGGGTCAGAAGGGAGGTAG | -1.34 |
